# Laboratory results reported in PubChem BioAssay AID1347073 (National Center for Advancing Translational Sciences (NCATS), 2019).
# Among all 45,000 compounds or so, about 200 (0.44%) were called active. Inconclusive means that the source gave no clear call. Such entries were picked first, then a sample of the others. Calls come from the whole dose curve; as a rule, active = well fitted activation curve with a large enough effect; inconclusive = small, poorly fitted or top-dose-only effect; inactive = no such curve, though single readings can be large or run the other way. Potencies beside an inconclusive call are fits to weak or partial responses and may not hold up.
# Experiment: qHTS of TDP-43 Inhibitors: NCGC Sytravon Library Screen; note: nearly all actives have a fitted effect of over 55% in size; for growth rescue (activation): 0% is about no effect
# Details: yeast TDP-43 toxicity rescue, BacTiter-Glo growth, 24 h; growth rescue (activation): at 46.1 µM (top of the series)
# In short: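 TDP-43-expressing yeast, pregrown in raffinose, seeded at OD600 0.02 in galactose medium with compound for 24 hr at 30 deg C. Growth read by BacTiter-Glo luminescence, so rescue of toxicity appears as activation.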
# Potency is the fitted concentration of half-maximal effect; tags give direction and shape of the fitted curve.
SMILES,Potency,growth rescue (activation)
CC1(C(=O)Nc2ccc3c(c2)OCO3)CCN1C(=O)Cc1cccc2ccccc12 (stereo not given),"inconclusive: 20 µM [activator, single point]",–
O=C(/C=C/c1cccc(Br)c1)c1ccc2c(c1)OCO2,"inconclusive: 10 µM [activator, partial curve, poor fit]",–
Cn1c(C(=O)c2ccccc2[N+](=O)[O-])nc2ccccc21,"inconclusive: 11.2 µM [activator, partial curve, poor fit]",–
CCSCCC(NC1=CC(=O)CC(C)(C)C1)C(=O)O (stereo not given),"inconclusive: 35.5 µM [activator, single point]",–
COc1ccc(-c2ccc(C(=O)N3CCOCC3)c3occc23)c(C)c1,"inconclusive: 17.8 µM [activator, single point]",–
O=C(O)c1cccc(COc2ccc3c(c2)CCC3)c1,"inconclusive: 12.6 µM [activator, partial curve, poor fit]",–
CC(O)(c1ccc(F)c(F)c1)c1nc(-c2ccc(F)c(Cl)c2)cs1 (stereo not given),–,inconclusive: -92.1% [activator]
Cc1cccc(-c2cc(NCCc3cccnc3)n3nccc3n2)c1,–,inactive: 2.69%
CCOC(=O)C1CCN(c2nc(-c3ccccc3)nc3c2oc2ccccc23)CC1,"inconclusive: 22.4 µM [activator, single point]",–
CCN(CC)CCCNC(=O)CCCn1ncn2c(cc3occc32)c1=O,–,inactive: 7.35%
COCCNC(=S)N/N=C(\C)c1ccc2cc(OC)ccc2c1,"inconclusive: 22.4 µM [activator, single point]",–
CSc1ncccc1C(=O)OCC(=O)Nc1ccc(C)c(S(=O)(=O)N2CCOCC2)c1,"inconclusive: 17.8 µM [activator, single point]",–
CCCCc1n[nH]c(=S)n1Cc1ccc(Cl)cc1,"inconclusive: 15.8 µM [activator, partial curve, poor fit]",–
COC(=O)c1ccc(/C=C/c2ccc3cccc(OC(C)=O)c3n2)cc1,"inconclusive: 6.31 µM [activator, partial curve]",–
COC(=O)c1cc2sc(C)cc2n1Cc1ccc(Br)cc1F,–,inactive: 15.7%
COc1ccc(CC(=O)OCC(=O)N2CCCC(C)C2)cc1 (stereo not given),–,inactive: 0.397%
CCCCN1CCc2nc(N3CCN(c4ncccn4)CC3)ncc2C1,–,inactive: -9.12%
CC(=O)N1CCN(c2ccc(Oc3ccc([N+](=O)[O-])c(C(F)(F)F)c3)cc2)CC1,"inconclusive: 12.6 µM [activator, partial curve, poor fit]",–
CC1CC(C)CN(C(=O)COC(=O)c2cc3ccccc3cc2O)C1 (stereo not given),"inconclusive: 35.5 µM [activator, single point]",–
C/C(=N\NC(N)=S)C1(C)CCCCC1,"inconclusive: 12.6 µM [activator, single point]",–
O=C(Nc1cccc2ccccc12)OCc1cncs1,"inconclusive: 12.6 µM [activator, single point]",–
Cc1nc2cc(NCc3cc([N+](=O)[O-])ccc3O)ccc2n1Cc1ccccc1,–,inactive: 1.39%

SMILES,Potency,growth rescue (activation)
CC(C)CCNc1nc2ccccc2nc1NS(=O)(=O)c1cccs1,"inconclusive: 17.8 µM [activator, single point]",–
Cc1cccc(NC(=O)/C=C/c2ccc(Cl)cc2)n1,"inconclusive: 11.2 µM [activator, partial curve, poor fit]",–
Cc1ccc(NC(=O)CN(C)C(=O)COc2ccccc2-c2ccccc2)cc1,"inconclusive: 31.6 µM [activator, single point]",–
CC(C)OC(=O)c1c(NC(=O)C2CC=CCC2C(=O)O)sc2c1CCCCC2 (stereo not given),"inconclusive: 0.631 µM [activator, partial curve, poor fit]",–
O=C(CCC(=O)OCc1ccc(C(=O)Oc2ccccc2)cc1)Nc1cccc2ccccc12,"inconclusive: 35.5 µM [activator, single point]",–
NNC(=O)c1cccc(COc2ccc3c(c2)CCC3)c1,"inconclusive: 25.1 µM [activator, single point]",–
Cc1nc(SCC(=O)Nc2cc(Cl)ccc2[N+](=O)[O-])nc(C)c1C,"inconclusive: 10 µM [activator, partial curve, poor fit]",–
Cc1c(C(=O)Nc2ccc3c(c2)OCO3)oc2ccccc12,"inconclusive: 17.8 µM [activator, partial curve, poor fit]",–
COC(=O)c1sc(NC(=O)COc2cccc(C)c2)nc1C,"inconclusive: 3.55 µM [activator, full curve]",–
O=C(CC1CCCC1)Nc1ccc(Br)cc1,"inconclusive: 15.8 µM [activator, partial curve, poor fit]",–
N/C(=N\OC(=O)CCCOc1ccccc1)c1ccc([N+](=O)[O-])cc1,–,inactive: 7.88%
O=C(O)c1ccccc1-c1csc(-c2ccccc2)n1,"inconclusive: 35.5 µM [activator, single point]",–
O=C(c1cc(-c2ccccc2)n[nH]1)N1CCc2c([nH]c3ccccc23)C1c1ccccn1 (stereo not given),"inconclusive: 22.4 µM [activator, single point]",–
CCc1cccc(CC)c1-n1c(SCC(=O)N2CCc3ccccc3C2)nnc1-c1cccnc1,"inconclusive: 12.6 µM [activator, partial curve, poor fit]",–
O=C(COC(=O)c1n[nH]c2ccccc12)Nc1ccccc1Br,"inconclusive: 7.94 µM [activator, partial curve, poor fit]",–
O=C(/C=C(/c1ccc(Cl)cc1)n1cncn1)c1ccccc1,"inconclusive: 15.8 µM [activator, partial curve, poor fit]",–
Cc1cccc(OCc2nc(-c3ccc(Br)o3)no2)c1,"inconclusive: 11.2 µM [activator, partial curve, poor fit]",–
CC1CCCC(NC(=O)COC(=O)c2ccc([N+](=O)[O-])o2)C1C (stereo not given),active: 12.6 µM,–
COc1ccccc1OCCOCCOc1ccccc1Cl,"inconclusive: 15.8 µM [activator, partial curve, poor fit]",–
O=C(COC(=O)/C=C/c1ccccc1Cl)NC(=O)NC1CCCC1,"inconclusive: 14.1 µM [activator, partial curve, poor fit]",–
CCCn1c(=O)c(C(=O)NNS(=O)(=O)c2ccc(NC(=O)OC)cc2)c(O)c2ccccc21,–,inactive: -5.47%
Cc1nc(N2CCCCC2)c2c(C)c(C(=O)Nc3ccccc3C(F)(F)F)sc2n1,active: 17.8 µM,–

SMILES,Potency,growth rescue (activation)
CN1CCSc2ccc(C(=O)Nc3cccc(F)c3)cc21,"inconclusive: 31.6 µM [activator, partial curve, poor fit]",–
CC1CN(S(=O)(=O)c2ccc(C(=O)N(C)C3CCCCC3)cc2)CC(C)O1 (stereo not given),–,inactive: 14.3%
Cc1cc(C(=O)NC2CCCc3ccccc32)ccc1[N+](=O)[O-] (stereo not given),"inconclusive: 12.6 µM [activator, partial curve, poor fit]",–
Cc1ccc(C)c(CN2C(=O)c3ccccc3S(=O)(=O)c3ccc(C(=O)N4CCN(c5ccccc5F)CC4)cc32)c1,–,inactive: 14.1%
COCCNC(=S)N=Nc1c(O)[nH]c2ccc([N+](=O)[O-])cc12,"inconclusive: 35.5 µM [activator, single point]",–
O=C(O)c1ccc(NC(=S)NC(=O)c2ccc(-c3ccccc3)cc2)cc1,active: 12.6 µM,–
Cc1cc(N/N=C/c2ccccc2Cl)nc(NCc2ccccc2)n1,"inconclusive: 35.5 µM [activator, single point]",–
CCOC(=O)CN1C(=O)c2cccnc2Oc2ccccc21,–,inactive: 5.73%
COc1cccc(/C=N/NC(=O)C(=O)Nc2ccccc2OC(F)(F)C(F)F)c1O,"inconclusive: 11.2 µM [activator, partial curve, poor fit]",–
O=C(NC(C(=O)N/N=C/c1ccccn1)c1n[nH]c(=O)c2ccccc12)c1ccccc1 (stereo not given),"inconclusive: 12.6 µM [activator, partial curve, poor fit]",–
COC(=O)c1cc2occc2n1Cc1cccc(C)c1,"inconclusive: 12.6 µM [activator, partial curve, poor fit]",–
CNC(CC(=O)c1ccc([N+](=O)[O-])cc1)C(Cl)(Cl)Cl (stereo not given),–,inactive: -92.9%
O=C(N/N=C/c1cc(Br)ccc1OC(=O)c1ccc(Br)cc1)c1ccncc1,"inconclusive: 20 µM [activator, partial curve, poor fit]",–
Cc1ccc(NC(=O)CCOc2ccccc2C)cc1C,"inconclusive: 3.16 µM [activator, partial curve, poor fit]",–
O=C(Nc1ccc2c(c1)OCO2)c1cc(C2CCCN(C(=O)CCc3ccccc3)C2)on1 (stereo not given),"inconclusive: 17.8 µM [activator, single point]",–
COc1ccc(C)cc1NC(=S)NNC(=O)c1c(Br)cnn1C,"inconclusive: 35.5 µM [activator, single point]",–
Cc1ccccc1NC(=O)c1c(NC(=O)Cc2ccccc2)sc2c1CCC2,–,inactive: -2.49%
O=C(O)c1ccc(/C=C/c2ccc3cccc(O)c3n2)cc1,"inconclusive: 2.82 µM [activator, partial curve, poor fit]",–
Cc1cc(F)ccc1NS(=O)(=O)c1c(C)nc2scc(C)n2c1=O,"inconclusive: 10 µM [activator, partial curve, poor fit]",–
O=C(CSc1nncs1)NCc1ccc(F)cc1,"inconclusive: 12.6 µM [activator, single point]",–
CN(c1ccccc1)S(=O)(=O)c1ccc(NC(=O)c2ccco2)cc1,"inconclusive: 15.8 µM [activator, partial curve, poor fit]",–
